According to PubChem BioAssay AID1963576 (National Center for Advancing Translational Sciences (NCATS), 2024):
Screen size: about 46,000 compounds; about 60 (0.1%) were called active. Roughly 3% stayed inconclusive and do not appear here. Calls come from the whole dose curve; as a rule, active = well fitted inhibition curve with a large enough effect; inconclusive = small, poorly fitted or top-dose-only effect; inactive = no such curve, though single readings can be large or run the other way. Some of the results follow.

Assay: Primary qHTS assay for Inhibitors of ovarian cancer metastasis using an organotypic tumor microenvironment (TME) model.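 For activity change, negative = inhibition: plate controls were DMSO wells for no effect and tomatine positive control wells for full effect.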 Note: nearly all actives have a fitted effect of over 65% in size.
Details: SKOV3ip1-GFP adhesion/invasion on 3D omental model, fluorescence; series mostly up to 45.8 µM; activity change, negative = inhibition: at the top concentration
How it was run: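 qHTS, 4-pt dose (0.36-46 umol/L); SKOV3ip1-GFP, 1,200 cells/well, no FBS; primary omental fibroblast/mesothelial co-culture 48 h pre-grown; 2 h RT + 16 h 37 C; PBS wash, 4% PFA; GFP count 488/509 nm.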

Activity change, negative = inhibition, inactive:
COc1ccc(CCNC(=O)c2cc3c(=O)n(C)c4cc(Cl)ccc4c3s2)cc1OC -11.6%
CCC1CN(C(=O)NCc2cccc(OC)c2)c2ccccc2O1 (stereo not drawn) -9.67%
Cc1ccc(-c2ccc(=O)n(CC(=O)NC(C)c3ccccc3)n2)cc1 (stereo not drawn) 13.5%
Cc1c(C(=O)OC2CCCCCC2)[nH]c2c1C(=O)CC(c1ccccc1Cl)C2 (stereo not drawn) -19.6%
CCOC(=O)c1c(S(=O)(=O)N2CCC(C(=O)Nc3cccc(C#N)c3)CC2)c(C)n(C)c1C 7.75%
CCN(CC)S(=O)(=O)c1ccc(C(=O)NC2CC(=O)N(c3ccc4c(c3)OCCO4)C2)cc1 (stereo not drawn) 6.36%
Oc1ccc(C2CNCCc3c2cc(O)c(O)c3Cl)cc1 (stereo not drawn) -12.3%
Cc1ccccc1NC(=O)Cn1c(=O)n(CCCCC(=O)NCc2ccccc2Cl)c(=O)c2ccccc21 6.77%
O=C(CSc1nc2c(c(=O)[nH]1)CN(Cc1ccc(F)cc1)CC2)Nc1cccc(C(F)(F)F)c1 -2.25%
Cc1cc(C)nc(-n2nc(C)c3c2NC(=O)CC3c2ccccc2OC(C)C)n1 (stereo not drawn) -3.01%
CCC1CCCCN1C(=O)Cn1c(=O)n(-c2ccccc2C(F)(F)F)c(=O)c2c(C)c(C(=O)N(C)C)sc21 (stereo not drawn) -3.95%
CCCCC(=O)NC1(C(F)(F)F)C(=O)Nc2c1c(=O)[nH]c(=O)n2-c1ccc(F)cc1 (stereo not drawn) 0.069%
Cc1ccc(C)c(NC(=O)C2CCCN(S(=O)(=O)c3cccc4nsnc34)C2)c1 (stereo not drawn) 56.3%
Cc1ccc(NC(=O)Cn2c(=O)n(Cc3nc(-c4ccccc4)no3)c(=O)c3cc4c(cc32)OCO4)cc1C -9.12%
COc1ccccc1N1CCN(C(c2ccccc2)c2nnc(-c3ccccc3Cl)o2)CC1 (stereo not drawn) -4.46%
COc1ccc(C2CC(=O)c3c([nH]c(C(=O)OC4CCCC4)c3C)C2)cc1OC (stereo not drawn) 2.4%
CCOc1ccc(NC(=O)C(CC)n2nc(-c3ccc(C)c(C)c3)ccc2=O)cc1 (stereo not drawn) 9.43%
CCOc1ccc(OCC)c(NC(=O)CN(c2ccc(C)cc2)S(=O)(=O)c2c(C)n[nH]c2C)c1 -3.95%
CCOc1ccc(CCNC(=O)c2ccc(Cn3c(=O)c4cccn4c4cccnc43)cc2)cc1 -3.64%
COc1ccc(-c2csc3ncnc(Nc4ccc(OC)c(OC)c4)c23)cc1 -18.9%
COc1cccc(C(=O)c2sc(Nc3ccc(C)cc3C)c(S(=O)(=O)c3ccccc3)c2N)c1 3.05%
CCCNC(=O)c1cc2n(n1)CCCN(Cc1ccc(F)cc1)C2=O 0.649%
Cc1ccc2scc(N3CCN(c4ccccc4)CC3)c(=O)c2c1 0.841%
CCOc1ccc(CCNC(=O)c2ccc3[nH]c(C)c(C)c3c2)cc1 19.7%
O=C(OCc1ccccc1)c1ccc(-c2nnn(Cc3ccccc3F)n2)cc1 -5.71%
O=C(CSCc1nc2cccnc2n1C1CCCCC1)NCc1cccc(Br)c1 5.3%
O=C(C1COc2ccccc2O1)N(Cc1cccnc1)c1nc2ccc(F)cc2s1 (stereo not drawn) -1.53%
CCN(C(=O)Cn1c(SCc2ccccc2F)nc2cccnc21)c1ccccc1 -3.77%
CCOC(=O)c1sc(N2C(=O)c3oc4ccc(F)cc4c(=O)c3C2c2cccc(OC)c2)nc1C (stereo not drawn) 4.75%
CCOc1ccc2ncc3c(-c4ccccc4)nn(CC(=O)Nc4cccc(F)c4)c3c2c1 5.26%
O=C(CSc1nc(-c2ccco2)nc2cc(=O)[nH]n12)Nc1ccccc1Cl -8.5%
O=C(Cn1c(=O)oc2ccccc21)NCc1ccccc1Cl 30.4%
CCCn1cc(S(=O)(=O)c2cccc(Cl)c2)c(=O)c2cc(F)c(N3CCN(CC)CC3)cc21 5.91%
COCCCNC(=O)C1CCN(c2nnc(-n3cccc3CNc3ccc(C)cc3)s2)CC1 -1.67%
COc1ccccc1CNC(=O)Cn1c(=O)oc2ccccc21 1.72%
COc1ccc(S(=O)(=O)N2Cc3ccccc3CC2C(=O)Nc2cccc(C)c2)cc1OC (stereo not drawn) 0.693%
CON=C(C(=O)N[C@@H]1C(=O)N2C(C(=O)O)=C(CSC(=O)c3ccco3)CS[C@H]12)c1csc(N)n1 18.5%
COc1ccccc1CNc1nc(-c2ccco2)nn1C(=O)c1ccccc1[N+](=O)[O-] -7.33%
CCCCn1c(CCNC(=O)c2ccc(F)cc2)nc2ccccc21 2.77%
COCCCNC(=O)Cn1c(=O)n(-c2cccc(C)c2)c(=O)c2c3c(sc21)CN(C(C)=O)CC3 1.27%
O=C(CN1C(=O)C2CCCCN2c2ccc(C(=O)N3CCCC3)cc21)NCc1ccccc1 (stereo not drawn) 5.61%
CCc1cccc(C)c1NC(=O)C1CCCN(S(=O)(=O)c2cccc3nsnc23)C1 (stereo not drawn) -3.29%
CC1(C)S[C@H]2[C@H](NC(=O)[C@@H](N)c3ccc(O)cc3)C(=O)N2[C@@H]1C(=O)O 3.52%
CN(C)c1ccc(CNc2nc(-c3ccco3)nn2S(=O)(=O)c2ccc(Cl)cc2)cc1 1.77%
COc1ccc(CNC(=O)c2cc3c(=O)n(Cc4cccs4)ccc3nc2C)cc1 -1.39%

outcome, inactive:
O=C(CN1C(=O)COc2ccc(S(=O)(=O)Nc3ccccc3)cc21)NCc1ccccc1Cl
COc1ccc(NC(=O)Cn2c(=O)n(CCc3ccccc3)c(=O)c3sc4ccccc4c32)cc1
CCOC(=O)c1ccc(N2C(=O)c3[nH]nc(-c4ccccc4)c3C2c2cccs2)cc1 (stereo not drawn)
COc1ccc(CCNc2nc(SCc3ccccc3Cl)nc3ccccc23)cc1OC
COc1cc(Cl)c(NS(=O)(=O)c2ccc3[nH]c(=O)ccc3c2)c(OC)c1
O=C(c1ccc2c(c1)N(Cc1ccccc1F)C(=O)c1ccccc1S2(=O)=O)N1CCCCCC1
COc1ccc(-n2c(-c3ccc(F)cc3)cn3c4c(=O)n(C)c(=O)n(C)c4nc23)cc1
COc1cc2[nH]c(=O)n(CCCC(=O)NCc3ccccc3Cl)c(=O)c2cc1OC
O=C(CSc1nc2c(c(=O)[nH]1)CCCC2)Nc1cccc(O)c1
COc1cccc(CNC(=O)Cn2cc3c(n2)-c2c(oc(C(=O)N4CCOCC4)c2C)CC3)c1
COC(=O)c1ccccc1NC(=O)CSc1nc2sc3c(c2c(=O)[nH]1)CCCC3
Cc1cc(=O)n2c(C(=O)Nc3ccc(C)c(C)c3)c(C(=O)Nc3ccccc3)sc2n1
COc1ccc(-c2nc3ccccc3o2)cc1NC(=O)c1ccc(N2CCC(C)CC2)c([N+](=O)[O-])c1
